# Test results: the BET-seq Pho4 binding data (Le et al. 2018)
# Some of the results follow. The energies were worked out here from pooled read counts, against the library average; single values are noisy.
# Biological target: T1, Pho4 (S. cerevisiae) (UniProt P07270)
# T1 sequence: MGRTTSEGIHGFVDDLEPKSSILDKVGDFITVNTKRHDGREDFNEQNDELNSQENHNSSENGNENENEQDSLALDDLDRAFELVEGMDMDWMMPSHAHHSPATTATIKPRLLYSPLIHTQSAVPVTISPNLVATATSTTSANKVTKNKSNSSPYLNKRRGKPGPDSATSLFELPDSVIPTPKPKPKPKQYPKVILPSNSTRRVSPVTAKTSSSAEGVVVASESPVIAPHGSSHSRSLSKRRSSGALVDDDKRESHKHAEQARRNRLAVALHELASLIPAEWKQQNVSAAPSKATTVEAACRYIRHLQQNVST
# Test: relative binding free energy (BET-seq); higher = weaker binding
# Conditions: reference: library average
row,Sequence,relative binding free energy
1,TTGTGCACGTGTTTAG,0.04 kcal/mol
2,CGCAGCACGTGGGTGG,-0.2 kcal/mol
3,AGGTGCACGTGATACG,-0.1 kcal/mol
4,TAAAGCACGTGAGGGA,0.13 kcal/mol
5,TGTTGCACGTGTTTCA,-0.01 kcal/mol
6,ACTATCACGTGGGTGT,-0.04 kcal/mol
7,GTAGGCACGTGAGAGA,0.21 kcal/mol
8,GCAGGCACGTGAGTTG,0.13 kcal/mol
9,ATTAGCACGTGAGGGT,0.07 kcal/mol
10,AGGACCACGTGGGTAG,-0.15 kcal/mol
11,TAATGCACGTGGCGCG,-0.05 kcal/mol
12,AGATACACGTGTAAGT,0.2 kcal/mol
13,CGGGTCACGTGAGGTA,0.36 kcal/mol
14,TTGAGCACGTGGGATT,-0.13 kcal/mol
15,TGGTGCACGTGGACGT,-0.03 kcal/mol
16,GGTTTCACGTGCACGG,0.26 kcal/mol
17,TATGGCACGTGTTTCT,-0.03 kcal/mol
18,GAGAGCACGTGAGGAG,0.23 kcal/mol
19,GGTATCACGTGCGAGT,0.21 kcal/mol
20,CTGACCACGTGAGGGG,0.23 kcal/mol
21,ATGTTCACGTGCTATA,0.13 kcal/mol
22,ATCTTCACGTGTGGTG,0.28 kcal/mol
23,ATTTTCACGTGGATGG,0.27 kcal/mol

row,Sequence,relative binding free energy
1,TTGCGCACGTGAATGT,0.17 kcal/mol
2,TTATACACGTGAGGTA,0.17 kcal/mol
3,CTAATCACGTGATGGT,0.32 kcal/mol
4,CGTTGCACGTGATGGT,0.01 kcal/mol
5,ATGGACACGTGCCGGT,0 kcal/mol
6,ATGTGCACGTGAATTG,0.25 kcal/mol
7,TTTCGCACGTGTGTCT,0.03 kcal/mol
8,GTTTACACGTGTATAT,0.21 kcal/mol
9,CATTTCACGTGTATGA,0.29 kcal/mol
10,TAAAGCACGTGGGTCT,-0.19 kcal/mol
11,GTGCACACGTGGTGTG,-0.02 kcal/mol
12,AGGTACACGTGAAGTT,0.36 kcal/mol
13,CGAAACACGTGGTGGG,-0.11 kcal/mol
14,TGATTCACGTGGGTGA,0.07 kcal/mol
15,TTTTGCACGTGAAACT,0.21 kcal/mol
16,TCAGCCACGTGAGGTG,0.21 kcal/mol
17,TGTACCACGTGGCGGT,-0.22 kcal/mol
18,ATAATCACGTGATGTT,0.24 kcal/mol
19,ACGTGCACGTGTGTTT,-0.03 kcal/mol
20,TTAATCACGTGTGCAG,0.1 kcal/mol
21,CGGGTCACGTGGTATG,0.08 kcal/mol
22,GTATGCACGTGGGGTT,-0.08 kcal/mol
23,GATTTCACGTGAGTGC,0.3 kcal/mol

row,Sequence,relative binding free energy
1,GGGCTCACGTGCCGGT,0.28 kcal/mol
2,GCTAGCACGTGCGGGT,-0.1 kcal/mol
3,CGTCGCACGTGTGGGT,-0.13 kcal/mol
4,TTGGCCACGTGCTGGT,-0.24 kcal/mol
5,TTCGTCACGTGGATTA,0.09 kcal/mol
6,TATTTCACGTGAGGGC,0.42 kcal/mol
7,TACGTCACGTGGTTAG,0.05 kcal/mol
8,TTGTACACGTGTGTGG,0.09 kcal/mol
9,TTGGACACGTGCTTTG,-0.01 kcal/mol
10,AGGGGCACGTGGCGCG,-0.23 kcal/mol
11,CGGTTCACGTGAGCTT,0.46 kcal/mol
12,GTAATCACGTGTTAAT,0.29 kcal/mol
13,AAAGACACGTGGTGGT,0.05 kcal/mol
14,AGTGACACGTGTTATT,-0.03 kcal/mol
15,TATTTCACGTGTTCGA,0.33 kcal/mol
16,TTATGCACGTGTCGGT,0.06 kcal/mol
17,GATGTCACGTGCGCGT,0.01 kcal/mol
18,TTGATCACGTGGATAT,0.18 kcal/mol
19,GTCGGCACGTGTGCTT,-0.06 kcal/mol
20,CGGGCCACGTGGGGTA,-0.36 kcal/mol
21,TGGTTCACGTGCGTGT,0.15 kcal/mol
22,CAGGGCACGTGGTTTA,-0.2 kcal/mol
23,TTACGCACGTGATATG,0 kcal/mol

row,Sequence,relative binding free energy
1,TTGTGCACGTGCAGAT,-0.16 kcal/mol
2,GCTTTCACGTGTGGAG,0.37 kcal/mol
3,TGTTACACGTGGGCGA,-0.09 kcal/mol
4,AGGGTCACGTGGTCCG,0.13 kcal/mol
5,GTAAGCACGTGTGAGA,0.01 kcal/mol
6,TGATGCACGTGGGTAC,-0.14 kcal/mol
7,TGGGGCACGTGTTAAA,0 kcal/mol
8,GAGGGCACGTGATCGT,-0.02 kcal/mol
9,TAAAGCACGTGTGCTT,-0.12 kcal/mol
10,GGGAACACGTGGGTCA,0.09 kcal/mol
11,GAGTTCACGTGCCGTG,0.26 kcal/mol
12,GATTGCACGTGTGGCG,0.09 kcal/mol
13,GGCTACACGTGTTTGT,0.15 kcal/mol
14,TAAGGCACGTGTAAAT,0.09 kcal/mol
15,AGGTTCACGTGTTCCG,0.28 kcal/mol
16,GTTAACACGTGTTGAT,0.16 kcal/mol
17,GGGTTCACGTGCTAGG,0.23 kcal/mol
18,GATGCCACGTGGCGGT,-0.08 kcal/mol
19,AAAAGCACGTGGGGGC,-0.29 kcal/mol
20,GTGTACACGTGGTAGT,0.03 kcal/mol
21,CGGTGCACGTGTACGT,0.15 kcal/mol
22,TTGGTCACGTGGAGGA,0.11 kcal/mol
23,GTGGGCACGTGTGTCC,-0.05 kcal/mol

row,Sequence,relative binding free energy
1,CCTTGCACGTGTGGGT,0 kcal/mol
2,GGGTTCACGTGGACTG,0.24 kcal/mol
3,TCAATCACGTGGGGAA,0.16 kcal/mol
4,TCGTTCACGTGTTGAT,0.12 kcal/mol
5,CTCGGCACGTGGGCTG,-0.15 kcal/mol
6,CTAGACACGTGAGGTT,0.22 kcal/mol
7,TTAACCACGTGGGTTT,-0.19 kcal/mol
8,TGGTGCACGTGTAATG,0.16 kcal/mol
9,TTGTGCACGTGAGCGC,0.14 kcal/mol
10,AGAATCACGTGTGGAT,0.25 kcal/mol
11,TGGTTCACGTGGCTTT,0.24 kcal/mol
12,ATGGGCACGTGTCTTG,-0.02 kcal/mol
13,TAGGTCACGTGTGCTC,0.11 kcal/mol
14,TCGAGCACGTGAGGGG,0.06 kcal/mol
15,TAAGTCACGTGGTTTC,0.08 kcal/mol
16,AAATGCACGTGTGGTC,0.01 kcal/mol
17,TCTGTCACGTGGAAGG,0.1 kcal/mol
18,ATTATCACGTGGTCGG,0.08 kcal/mol
19,AAGCTCACGTGGGTTT,0.01 kcal/mol
20,GTTTTCACGTGAGTAG,0.42 kcal/mol
21,GCTAGCACGTGAGTGT,0.21 kcal/mol
22,GGTGTCACGTGCCGGT,-0.02 kcal/mol
23,GATTTCACGTGATAGG,0.46 kcal/mol
